Experimental findings from the supplement of paper PMC4604168 (melanoma cell lines) are described below.

The other results are listed elsewhere or left out. Many values rest on one well or one pass, so single values are uncertain.
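Note: cell number obtained by counting DAPI-stained nuclei in high-throughput microscope images with image analysis software, screen run in 1,536-well plates.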

The assay has as its system MZ2-MEL. As to the kind of experiment: cell count relative to DMSO control; melanoma cells; higher = more viable cells. The settings on record: library dose: low library concentration; 72 h.
The compound `O=C(O)[C@@H]1[O][Sb](=[O])([O][Sb]2(=[O])[O][C@H]([C@H](O)CO)[C@H](O)[C@H](C(=O)O)[O]2)[O][C@H]([C@H](O)CO)[C@@H]1O` (stereo not given in full) [stibogluconate] + CN(C)S(=O)(=O)c1ccc2c(c1)/C(=C/c1cc3c([nH]1)CCCC3)C(=O)N2 [SU6656] (first compound 2 µM, partner dose 0.4 µM) yielded a cell count of 107%. The result for `O=C(O)c1ccc2c(c1)nc(Nc1cccc(Cl)c1)c1ccncc12` + C[C@]1(c2nc3c(C(N)=O)cccc3[nH]2)CCCN1 [Veliparib] (first compound 0.4 µM, partner dose 1.4 µM) reads 84.9%.

For `O=C(Nc1cc(C(F)(F)F)cc(C(F)(F)F)c1)c1cc(Cl)ccc1O` + NC(=O)c1ccc(N(C(N)=O)c2c(F)cccc2F)nc1-c1ccc(F)cc1F [VX702] (first compound 0.016 µM, partner dose 0.4 µM), the cell count amounted to 117%.

`O=C(Nc1cc(C(F)(F)F)cc(C(F)(F)F)c1)c1cc(Cl)ccc1O` + Cn1cnc2c(F)c(Nc3ccc(Br)cc3Cl)c(C(=O)NOCCO)cc21 [selumetinib] (first compound 0.016 µM, partner dose 0.015 µM) registered a cell count of 111%. For `O=C(O)c1ccc2c(c1)nc(Nc1cccc(Cl)c1)c1ccncc12` + O=C1NC(=O)/C(=C/c2ccc(-c3ccc(F)cc3O)o2)S1 [AS252424] (first compound 0.4 µM, partner dose 1 µM), the cell count was 88%.

`O=C(Nc1cc(C(F)(F)F)cc(C(F)(F)F)c1)c1cc(Cl)ccc1O` + O=C(O)[C@@H]1[O][Sb](=[O])([O][Sb]2(=[O])[O][C@H]([C@H](O)CO)[C@H](O)[C@H](C(=O)O)[O]2)[O][C@H]([C@H](O)CO)[C@@H]1O [stibogluconate] (first compound 0.016 µM, partner dose 2 µM) registered a cell count of 93.5%. The result for `O=C(O)c1ccc2c(c1)nc(Nc1cccc(Cl)c1)c1ccncc12` + OCc1c[nH]c2ccccc12 [Indole-3-carbinol] (first compound 0.4 µM, partner dose 0.8 µM) reads 84.6%. Under `O=C(Nc1cc(C(F)(F)F)cc(C(F)(F)F)c1)c1cc(Cl)ccc1O` + COc1cc2ncnc(Nc3ccc(Oc4ccccc4)cc3)c2cc1OC [SrcI1] (first compound 0.016 µM, partner dose 2 µM) stands 84.7%; under `O=C(O)[C@@H]1[O][Sb](=[O])([O][Sb]2(=[O])[O][C@H]([C@H](O)CO)[C@H](O)[C@H](C(=O)O)[O]2)[O][C@H]([C@H](O)CO)[C@@H]1O` (stereo not given in full) [stibogluconate] + COc1cc(Nc2ncc(F)c(Nc3ccc4c(n3)NC(=O)C(C)(C)O4)n2)cc(OC)c1OC [Tamatinib] (first compound 2 µM, partner dose 0.4 µM), 89.7%. The result for `O=C(Nc1cc(C(F)(F)F)cc(C(F)(F)F)c1)c1cc(Cl)ccc1O` + CC1(C)CCC(c2ccc(Cl)cc2)=C(CN2CCN(c3ccc(C(=O)NS(=O)(=O)c4ccc(N[C@H](CCN5CCOCC5)CSc5ccccc5)c(S(=O)(=O)C(F)(F)F)c4)cc3)CC2)C1 [ABT263] (first compound 0.016 µM, partner dose 0.4 µM) reads 97.4%; that for `O=C(Nc1cc(C(F)(F)F)cc(C(F)(F)F)c1)c1cc(Cl)ccc1O` + CC(C)CCN1c2nc(Nc3cc(F)c(O)c(F)c3)ncc2N(C)C(=O)C1C [BID1870] (first compound 0.016 µM, partner dose 0.2 µM), 98.5%. As for `O=C(Nc1cc(C(F)(F)F)cc(C(F)(F)F)c1)c1cc(Cl)ccc1O` + O=C(Nc1cccc(Cl)c1)Nc1ncc(CCNc2ncnc3ccsc23)s1 [SNS314] (first compound 0.016 µM, partner dose 0.0008 µM), the cell count was found to be 102%. The result for `O=C(O)[C@@H]1[O][Sb](=[O])([O][Sb]2(=[O])[O][C@H]([C@H](O)CO)[C@H](O)[C@H](C(=O)O)[O]2)[O][C@H]([C@H](O)CO)[C@@H]1O` (stereo not given in full) [stibogluconate] + CCc1ccc(CCOc2ccc(CC3SC(=O)NC3=O)cc2)nc1 [pioglitazone] (first compound 2 µM, partner dose 2 µM) reads 99.4%. The result for `O=C(O)[C@@H]1[O][Sb](=[O])([O][Sb]2(=[O])[O][C@H]([C@H](O)CO)[C@H](O)[C@H](C(=O)O)[O]2)[O][C@H]([C@H](O)CO)[C@@H]1O` (stereo not given in full) [stibogluconate] + O=C(O)C(=O)Nc1sc2c(c1C(=O)O)CCNC2 [TCS401] (first compound 2 µM, partner dose 1.66667 µM) reads 98.7%; that for `O=C(Nc1cc(C(F)(F)F)cc(C(F)(F)F)c1)c1cc(Cl)ccc1O` + CS(=O)(=O)c1ccc(C(=O)Nc2ccc(Cl)c(-c3ccccn3)c2)c(Cl)c1 [vismodegib] (first compound 0.016 µM, partner dose 1 µM), 106%.

As for `O=C(Nc1cc(C(F)(F)F)cc(C(F)(F)F)c1)c1cc(Cl)ccc1O` + COc1ccc(Cl)c(Nc2nc3ccccc3nc2NS(=O)(=O)c2cccc(NC(=O)C(C)(C)N)c2)c1 [XL147] (first compound 0.016 µM, partner dose 0.8 µM), the cell count is 87.2%. Under `O=C(O)c1ccc2c(c1)nc(Nc1cccc(Cl)c1)c1ccncc12` + Cn1nnc2c(C(N)=O)ncn2c1=O [temozolomide] (first compound 0.4 µM, partner dose 2 µM) stands 91.6%. The result for `O=C(O)c1ccc2c(c1)nc(Nc1cccc(Cl)c1)c1ccncc12` + CC1(C)NC(=O)N(c2ccc([N+](=O)[O-])c(C(F)(F)F)c2)C1=O [nilutamide] (first compound 0.4 µM, partner dose 1 µM) reads 98.5%; that for `O=C(O)c1ccc2c(c1)nc(Nc1cccc(Cl)c1)c1ccncc12` + Oc1nc(-c2ccc(C(F)(F)F)cc2)nc2c1CSCC2 [XAV939] (first compound 0.4 µM, partner dose 2 µM), 87.1%; that for `O=C(O)[C@@H]1[O][Sb](=[O])([O][Sb]2(=[O])[O][C@H]([C@H](O)CO)[C@H](O)[C@H](C(=O)O)[O]2)[O][C@H]([C@H](O)CO)[C@@H]1O` (stereo not given in full) [stibogluconate] + C#Cc1cccc(Nc2ncnc3cc(OCCOC)c(OCCOC)cc23)c1 [erlotinib] (first compound 2 µM, partner dose 0.8 µM), 103%. As for `O=C(O)[C@@H]1[O][Sb](=[O])([O][Sb]2(=[O])[O][C@H]([C@H](O)CO)[C@H](O)[C@H](C(=O)O)[O]2)[O][C@H]([C@H](O)CO)[C@@H]1O` (stereo not given in full) [stibogluconate] + C[C@@H]1CCN(C(=O)CC#N)C[C@@H]1N(C)c1ncnc2[nH]ccc12 [CP690550] (first compound 2 µM, partner dose 1 µM), the cell count came out at 107%.

The compound `O=C(O)[C@@H]1[O][Sb](=[O])([O][Sb]2(=[O])[O][C@H]([C@H](O)CO)[C@H](O)[C@H](C(=O)O)[O]2)[O][C@H]([C@H](O)CO)[C@@H]1O` (stereo not given in full) [stibogluconate] + OCc1c[nH]c2ccccc12 [Indole-3-carbinol] (first compound 2 µM, partner dose 0.8 µM) gave a cell count of 92.2%. The result for `O=C(Nc1cc(C(F)(F)F)cc(C(F)(F)F)c1)c1cc(Cl)ccc1O` + Clc1ccc(Nc2nnc(Cc3ccncc3)c3ccccc23)cc1 [vatalanib] (first compound 0.016 µM, partner dose 2 µM) reads 94.6%. `O=C(Nc1cc(C(F)(F)F)cc(C(F)(F)F)c1)c1cc(Cl)ccc1O` + CN(NC(=O)CC(=O)NN(C)C(=S)c1ccccc1)C(=S)c1ccccc1 [STA4783] (first compound 0.016 µM, partner dose 0.006 µM) came in with a cell count of 97.9%. Under `O=C(Nc1cc(C(F)(F)F)cc(C(F)(F)F)c1)c1cc(Cl)ccc1O` + COCC[n+]1c2c(n(Cc3cnccn3)c1C)C(=O)c1ccccc1C2=O [YM155] (first compound 0.016 µM, partner dose 0.0004 µM) stands 52.5%. On to `O=C(Nc1cc(C(F)(F)F)cc(C(F)(F)F)c1)c1cc(Cl)ccc1O` + O=C(O)c1ccc2c(c1)nc(Nc1cccc(Cl)c1)c1ccncc12 [CX4945] (first compound 0.016 µM, partner dose 0.4 µM), for which the cell count is 96.6%. `O=C(Nc1cc(C(F)(F)F)cc(C(F)(F)F)c1)c1cc(Cl)ccc1O` + CCCCCCCCCCCCCCCCCCOP(=O)([O-])OC1CC[N+](C)(C)CC1 [Perifosine] (first compound 0.016 µM, partner dose 0.4 µM): the cell count was 93.5%. Under `O=C(O)c1ccc2c(c1)nc(Nc1cccc(Cl)c1)c1ccncc12` + NC(=O)Nc1cc(-c2cccc(F)c2)sc1C(=O)N[C@H]1CCCNC1 [AZD7762] (first compound 0.4 µM, partner dose 0.02 µM) stands 90.5%.

Regarding `O=C(Nc1cc(C(F)(F)F)cc(C(F)(F)F)c1)c1cc(Cl)ccc1O` + C#Cc1cccc(Nc2ncnc3cc(OCCOC)c(OCCOC)cc23)c1 [erlotinib] (first compound 0.016 µM, partner dose 0.8 µM), the cell count came out at 93.3%. Under `O=C(O)[C@@H]1[O][Sb](=[O])([O][Sb]2(=[O])[O][C@H]([C@H](O)CO)[C@H](O)[C@H](C(=O)O)[O]2)[O][C@H]([C@H](O)CO)[C@@H]1O` (stereo not given in full) [stibogluconate] + Nc1nc(F)nc2c1ncn2[C@@H]1O[C@H](CO)[C@@H](O)[C@@H]1O [fludarabine] (first compound 2 µM, partner dose 0.2 µM) stands 101%.
